The other results are listed elsewhere or left out. The full chains were built here from the parent and the listed change. Values near 0.05 are background.
B1: TEV protease; numbered along this chain (parent)
chain: MGESLFKGPRDYNPISSSICHLTNESDGHTTSLYGIGFGPFIITNKHLFRRNNGTLVVQSLHGVFKVKDTTTLQQHLVDGRDMIIIRMPKDFPPFPQKLKFREPQREERICLVTTNFQTKSMSSMVSDTSCTFPSGDGIFWKHWIQTKDGQCGSPLVSTRDGFIVGIHSASNFTNTNNYFTSVPKNFMELLTNQEAQQWVSGWRLNADSVLWGGHKVFMVKPEEPFQPVKEATQL

Variants of: B1
Test: raw area under fraction-flipped curve 0-4 h after induction (AUC4h, not background-subtracted), DNA-recorder readout of cleavage of the substrate (dimensionless); higher = more cleavage of the substrate by the protease variant
Conditions: temperature: 34 °C; time window: 0-4 h after rhamnose induction
Experimental: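 In vivo DNA recorder in E. coli TOP10(DE3) ΔrhaA at 34 °C. Each TEVp single-site mutant (parent TEVp 0) is paired with a single-site variant of the 7-mer TEVs (canonical ENLYFQ|S). The substrate sits between flexible linkers in a Bxb1-sfGFP-TEVs-SsrA fusion, so cleavage stabilises Bxb1 and speeds flipping of a recombination array, read by NGS. The value is the raw area under the fraction-flipped curve over 0-4 h after rhamnose induction (AUC4h), with ≥20 reads per time point. It is not background-subtracted; inactive controls average about 0.047.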
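Note: Bxb1 expression induced with 0.2% (w/v) L-rhamnose at OD600 near 0.5, cultures sampled hourly, flipped fraction per protease–substrate barcode pair counted by paired-end Illumina sequencing.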

Variant	area with substrate ENLCFQS	area with substrate ENLFFQS	area with substrate ENLGFQS	area with substrate ENLHFQS	area with substrate ENLPFQS	area with substrate ENLQFQS	area with substrate ENLRFQS	area with substrate ENLWFQS	area with substrate ENLDFQS	area with substrate ENLEFQS	area with substrate ENLKFQS	area with substrate ENLLFQS	area with substrate ENLNFQS	area with substrate ENLSFQS	area with substrate ENLVFQS	area with substrate ENLIFQS	area with substrate ENLTFQS	area with substrate ENLMFQS
MGESLFKGPRDYNPISSSICHLTNESDGHTTSLYGIGFGPFIITNKHLFRRNNGTLVVQSLHGVFKVKDTTTLQQHLVDGRDMIIIRMPKDFPPFPQKLKFREPQREERICLVTTNFQTKSMSSMVSDTSCTFPSGDGIFWKHWIQTKDGQCGSPLVSTRDGFIVGIHSASNFTNTNNYFTSVPKNFMELLTNQEAQQWVSGWRLNADDVLWGGHKVFMVKPEEPFQPVKEATQL [S209D]	0.0689	0.0881	0.0479	0.0681	0.0518	0.0653	0.0701	0.0622										
MGESLFKGPRDYNPISSSICHLTNESDGHTTSLYGIGFGPFIITNKHLFRRNNGTLVVQSLHGVFKVKDTTTLQQHLVDGRDMIIIRMPKDFPPFPQKLKFREPQREERICLVTTNFQTKSMSSMVSDTSCTFPSGDGIFWKHWIQTKDGQCGSPLVSTRDGFIVGIHSASNFTNTNNYFTSVPKNFMELLTNQEAQQWVSRWRLNADSVLWGGHKVFMVKPEEPFQPVKEATQL [G202R]	0.0572		0.0633	0.0396	0.0635		0.0608		0.0761	0.0653	0.0652							
MGESLFKGPRDYNPISSSICHLTNESGGHTTSLYGIGFGPFIITNKHLFRRNNGTLVVQSLHGVFKVKDTTTLQQHLVDGRDMIIIRMPKDFPPFPQKLKFREPQREERICLVTTNFQTKSMSSMVSDTSCTFPSGDGIFWKHWIQTKDGQCGSPLVSTRDGFIVGIHSASNFTNTNNYFTSVPKNFMELLTNQEAQQWVSGWRLNADSVLWGGHKVFMVKPEEPFQPVKEATQL [D27G]				0.0604	0.0519		0.0659		0.0406	0.0311	0.0772	0.0649	0.061	0.0551	0.0704			
MGESLFKGPRDYNPISSSICHLKNESDGHTTSLYGIGFGPFIITNKHLFRRNNGTLVVQSLHGVFKVKDTTTLQQHLVDGRDMIIIRMPKDFPPFPQKLKFREPQREERICLVTTNFQTKSMSSMVSDTSCTFPSGDGIFWKHWIQTKDGQCGSPLVSTRDGFIVGIHSASNFTNTNNYFTSVPKNFMELLTNQEAQQWVSGWRLNADSVLWGGHKVFMVKPEEPFQPVKEATQL [T23K]		0.0772	0.0565	0.064	0.0593		0.072	0.0594	0.0695	0.0655	0.0742	0.0684	0.058	0.0645				
MGESLFKGPRDYNPISSSICHLTNESDGHTTSLYGIGFGPFIITNKHLFRRNNGTLVVQSLHGVFKVKDTTTLQQHLVDGRDMIIIRMPKDFPPFPQKLKFREPQREERICLVTTNFQTKSMSSMVSDTSCTFPSGDGIFWKHWIQTKDGQCGSPLVSTRDGFIVGIHSASNFTNTNNYFTSVPKNFMELLTNQEAQQWVSGWRLNADSVLWGGHKVFMVKAEEPFQPVKEATQL [P222A]	0.0706	0.0805	0.0505					0.0748	0.0528	0.0541	0.0814	0.0701	0.065					
MGESLFKGPRDYNPISSSICHLTNESDGHTTSLYGIGFGPFIITNKHLFRRNNGTLVVQSLHGVFKVKDTTTLQQHLVDGRDMIIIRMPKDFPPFPQKLKFREPQREERICLVTTNFQTKSMSSMVSDTSCTFPSGDGIFWKHWIQTKDGQCGSPLVSTRDGFIVGIHSASNFTNTNNYFTSVPKNFMELLTNQRAQQWVSGWRLNADSVLWGGHKVFMVKPEEPFQPVKEATQL [E195R]	0.0726	0.0804	0.0678		0.0592		0.065	0.0638	0.0679		0.0715	0.0599	0.0721	0.0508	0.12	0.0646		
MGEYLFKGPRDYNPISSSICHLTNESDGHTTSLYGIGFGPFIITNKHLFRRNNGTLVVQSLHGVFKVKDTTTLQQHLVDGRDMIIIRMPKDFPPFPQKLKFREPQREERICLVTTNFQTKSMSSMVSDTSCTFPSGDGIFWKHWIQTKDGQCGSPLVSTRDGFIVGIHSASNFTNTNNYFTSVPKNFMELLTNQEAQQWVSGWRLNADSVLWGGHKVFMVKPEEPFQPVKEATQL [S4Y]			0.0943	0.0637	0.0666	0.0858	0.0842		0.0642		0.0859		0.0483	0.0678	0.131	0.121		
MGESLFKGPRDYNPISSSICHLTNESDGHTTSLYGIGFGPFIITNKHLFCRNNGTLVVQSLHGVFKVKDTTTLQQHLVDGRDMIIIRMPKDFPPFPQKLKFREPQREERICLVTTNFQTKSMSSMVSDTSCTFPSGDGIFWKHWIQTKDGQCGSPLVSTRDGFIVGIHSASNFTNTNNYFTSVPKNFMELLTNQEAQQWVSGWRLNADSVLWGGHKVFMVKPEEPFQPVKEATQL [R50C]						0.0615	0.083	0.0661	0.0601		0.0772					0.0906		
MGESLFKGPRDYNPISSSICHLTNESDGHTTSLYGIGFGPFIITNKHLFRRNNGTLVVQSLHGVFKVKDTTTLQQHLVDGRDMIIIRMPKDFPPFPQKLKFREPQREERICLVTTNFQTKSMSSMVSDTSCTFPSGDGIFWKHWIQTKDGQCGSPLVSTRDGFIVGIHSASNFTNTNNYFTSVPKNFMELLTNQEAVQWVSGWRLNADSVLWGGHKVFMVKPEEPFQPVKEATQL [Q197V]	0.0612	0.0898	0.0545	0.0594	0.044	0.0605	0.0725		0.0642	0.069	0.0757	0.0721		0.0658	0.0541	0.0966	0.0709	
MGESLFKGPRDYNPISSSICHLTNESDGHTTSLYGIGFGPFIITNKHLFRRNNGTLVVQSLHGVFKVKDTTTLQQHLVDGRDMIIIRMPKDFPPFPQKLKFREPQREERICLVTTNFQTKSMSSMVSDTSCTFPSGDGIFWKHWIQTKDGQCGSPLVSTRDGFIVGIHSASNFTNTNNYFTSVPKNFMELLTNQEAQQWVSGWRLNADSVLWGGHKVFWVKPEEPFQPVKEATQL [M219W]	0.0194	0.0687			0.0527		0.0819		0.0999	0.0651	0.0652	0.0855	0.0637	0.0733		0.0946		0.0737
MGESLFKGPRDYNPISSSICHLTNESDGHTTSLYGIGFGPFIITNKHLFRRNNGTLVVQSLHGVFKVKDTTTLQQHLVDGRDMIIIRMPKDFPPFPQKLKFREPQREERICLVTTNFQTKSMSSMVSDTSCTFPSGDGIFWKHWIQTKDGQCGSPLVSTRDGFIVGIHSASNFTNTNNYFTSVPKNFMELLTNQEAQQWVSGWRLNADSVLWGGHKVFMVKPEEPFQPVKEAQQL [T233Q]	0.0775	0.0874			0.049		0.0569		0.0506	0.0637	0.0765	0.0475	0.0691	0.0559				
MGESLFKGPRDYNPISSSICHLTNESDGHTTSLYGIGFGPFIITNKHLFRRNNGTLVVQSLHGVFKVKDTTTLQQHLVDGRDMIIIRMPKDFPPFPQKLKFREPQREERICLVTTNFQTKSMSSMVSDTSCTFPSGDGIFWKHWIQTKDGQCGSPLVSTRDGFIVGIHSASNFTNTNNYFTSVPKNFMELLTNQEAQQWVSGWRLNADSVLWGGHKVFMVKPEEPFQPVKEATQE [L235E]	0.0755				0.0643		0.0571				0.0853		0.0659					0.064
MGESLFKGPRDYNPISSSICHLTNESDGHTTSLYGIGFGPFIITNKHLFRRNNGTLVVQSLHGVFKVKDTTTLQQHLVDGRDMIIIRMPKDFPPFPQKLKFREPQREERICLVTTNFQTKSMSSMVSDTSCTFPSGDGIFWKHWIQTKDGQCGSPLVSTRDGFIVGIHSASNFTNTNNYFTSVPKNFMELLTNQEAQQWVSGWRLNADSVLWGGHKVFMVKPEEPFQPVKEATQQ [L235Q]	0.0677	0.107		0.0692	0.0622		0.0833	0.0671	0.0714	0.0624		0.0827	0.0667		0.0707	0.107		
MGESLFKGPRDYNPISSSICHLTNESDGHTTSLYGIGFGPFIITNKHLFRRNNGTLVVQSLHGVFKVKDTTTLQQHLVDGRDMIIIRMPKDFPPFPQKLKFREPQREERICLVTTNFQTKSMSSMVSDTSCTFPSGDGIFWKHWIQTKDGQCGSPLVSTRDGFIVGIHSASNFTNTNNYFTSVPKNFMELLTNQEAQQWVSGWRLNADSVLWGDHKVFMVKPEEPFQPVKEATQL [G214D]	0.0501		0.0781	0.0458	0.0503		0.051	0.0533			0.057		0.0619				0.0747	0.0609
MGESLFKGPRDYNPISSSICHLTNESDGHTTSLYGIGFGPFIITPKHLFRRNNGTLVVQSLHGVFKVKDTTTLQQHLVDGRDMIIIRMPKDFPPFPQKLKFREPQREERICLVTTNFQTKSMSSMVSDTSCTFPSGDGIFWKHWIQTKDGQCGSPLVSTRDGFIVGIHSASNFTNTNNYFTSVPKNFMELLTNQEAQQWVSGWRLNADSVLWGGHKVFMVKPEEPFQPVKEATQL [N45P]				0.0797	0.05				0.0692		0.061	0.0524	0.0662	0.0641				
MGESLFKGPRDYNPISSSICHLTNESDGHTTSLYGIGFGPFIITNKHLFRRNNGTLVVQSLHGVFKVKDTTTLQQHLVDGRDMIIIRMPKDFPPFPQKLKFREPQREERICLVTTNFQTKSMSSMVSDTSCTFPSGDGIFWKHWIQTKDGQCGSPLVSTRDGFIVGIHSASNFTNTNNYFTSVPKNFMELLTNQEAQQWVSGWRLNADSVLWGGHKVFMVKPEEPFQPEKEATQL [V229E]	0.0645	0.0829	0.0727	0.0621	0.055		0.078		0.0585	0.0571	0.0751	0.0532	0.0557	0.0718	0.0846	0.0914		0.0717
MGESLFKGPRDYNPISSSICHLTNESDGHTTSLYGIGFGPFIITNKHLFRRNNGTLVVQSLHGVFKVKDTTTLQQHLVDGRDMIIIRMPKDFPPFPQKLKFREPQREERICLVTTNFQTKSMSSMVSDTSCTFPSGDGIFWKHWIQTKDGQCGSPLVSTRDGFIVGIHSASNFTNTNNYFTSVPKNFMELLTNQEAQNWVSGWRLNADSVLWGGHKVFMVKPEEPFQPVKEATQL [Q198N]	0.0667	0.0909		0.0663		0.0612	0.0759	0.068	0.059		0.0746	0.072	0.0588	0.0753	0.0902	0.0856		0.068
MGRSLFKGPRDYNPISSSICHLTNESDGHTTSLYGIGFGPFIITNKHLFRRNNGTLVVQSLHGVFKVKDTTTLQQHLVDGRDMIIIRMPKDFPPFPQKLKFREPQREERICLVTTNFQTKSMSSMVSDTSCTFPSGDGIFWKHWIQTKDGQCGSPLVSTRDGFIVGIHSASNFTNTNNYFTSVPKNFMELLTNQEAQQWVSGWRLNADSVLWGGHKVFMVKPEEPFQPVKEATQL [E3R]		0.0742	0.0666	0.0703		0.0401	0.0671		0.061	0.0395	0.0685		0.0575	0.0715	0.0828	0.0933		0.0678
MGESLFKGPRDYNKISSSICHLTNESDGHTTSLYGIGFGPFIITNKHLFRRNNGTLVVQSLHGVFKVKDTTTLQQHLVDGRDMIIIRMPKDFPPFPQKLKFREPQREERICLVTTNFQTKSMSSMVSDTSCTFPSGDGIFWKHWIQTKDGQCGSPLVSTRDGFIVGIHSASNFTNTNNYFTSVPKNFMELLTNQEAQQWVSGWRLNADSVLWGGHKVFMVKPEEPFQPVKEATQL [P14K]		0.0783		0.0654				0.07	0.0684	0.0505	0.0715	0.0881	0.0648	0.0653		0.0803		0.0844

Source: the supplement of paper PMC12217912
